Test results: ChEMBL document CHEMBL1201862, “PubChem BioAssay data set” (2004)

Each molecule was assayed on NCI-H322M (assay: DTP human tumour cell line panel, 48 h).

Structure (SMILES)	GI50
CC1=NC(C(=O)O)Cc2c1[nH]c1ccccc21 (centres undefined)	inactive: > 100 µM
COC(=O)C1=COC(C)C2CN3CCc4c([nH]c5cc(OC)c(OC)cc45)C3CC12 (centres undefined)	inactive: > 100 µM
O=C1c2ccccc2C(=O)c2[nH]cnc21	inactive: 67.5 µM
O=C1C(c2c(O)[nH]c3ccc(Br)cc23)=Nc2ccc(Br)cc21	inactive: 22.6 µM
C=CCNc1nc2c(s1)C(=O)c1ccccc1C2=O	inactive: 14.6 µM
O=C(OCc1ccccc1)N1CCNCCN(C(=O)OCc2ccccc2)CCNCC1	inactive: 13.7 µM
C/C(=N\N(c1ccccc1)c1ccccc1)c1c(O)cc(C)oc1=O	inactive: > 100 µM
COC(=O)C1CCC(=O)N1CN(C(C)=O)c1cc(OC)ccc1OC (centres undefined)	inactive: > 100 µM
Cc1nc(SCC(=O)Nc2ccc(Cl)cc2)c2sc(=S)n(-c3ccccc3)c2n1	inactive: > 10 µM
c1cc2nnsc2s1	inactive: > 100 µM
CCCCCCCCCCCCCCCC(=O)NCC(OCC)OCC	inactive: > 100 µM
CC(=O)C1C(=O)C(=O)N(CCN2C(=O)C(=O)C(C(C)=O)C2=O)C1=O (centres undefined)	inactive: > 100 µM
NP1(Oc2ccc(F)cc2)=NP(N)(Oc2ccc(F)cc2)=NP(Oc2ccc(F)cc2)(Oc2ccc(F)cc2)=N1 (centres undefined)	inactive: 3.66 µM
Cc1nc2cc(Cl)c(N)cc2[nH]1	inactive: > 100 µM
C/C(=N\Nc1nc2ccccc2n1C)c1ccc2ccccc2n1	active: 0.618 µM
CC(=O)OCCOCn1c2c(c(=S)[nH]c1=O)CCC2	inactive: > 100 µM
O=C1NC(=S)N/C1=C\c1cc2c(=O)c3ccccc3sc2s1	inactive: > 100 µM
N#C/C(=C1/c2cc([N+](=O)[O-])ccc2-c2c1cc([N+](=O)[O-])cc2[N+](=O)[O-])N1CCCCC1	inactive: > 100 µM
C[C@@H]1S[C@H](c2c(F)cccc2Cl)n2c1nc1ccccc12	inactive: 17.3 µM
CC[N+]1(C)CCC(O)(/C=C/c2ccc(Cl)cc2)C(C(=O)/C=C/c2ccc(Cl)cc2)C1 (centres undefined)	inactive: 14.9 µM
O=[N+]([O-])c1c(/C=N/Nc2ccccc2)oc(-c2ccc3c(c2)OCO3)c1-c1ccc2c(c1)OCO2	inactive: 94.4 µM
Cc1ccc(NC(=O)CC2SC(=N)NC2=O)cc1C (centres undefined)	inactive: > 100 µM
CC1CC2C(=O)N(c3ccccc3)C(=O)C2c2[nH]c3ccccc3c21 (centres undefined)	inactive: > 100 µM
COc1ccc(-n2c(=O)c3nc(S)[nH]c3n(-c3ccc(OC)cc3)c2=S)cc1	inactive: > 100 µM

Structure (SMILES)	GI50
N#Cc1ccc(/C=N/C23CC4CC(CC(C4)C2)C3)cc1	inactive: > 100 µM
O=C1C=Cc2c(Cl)sc(Cl)c21	inactive: 15 µM
NC(=O)NN=C1Cc2ccccc2C1	inactive: > 100 µM
Cc1cc(=O)n2nc(CSc3nnc(N)s3)sc2n1	inactive: > 100 µM
CC(O)C1OC(O)C2OC(C)(C)OC12 (centres undefined)	inactive: > 100 µM
Nc1nc(S)c2c(N)n[nH]c2c1C(=O)Nc1ccc(Cl)cc1	inactive: 87.1 µM
Nc1ccc(Oc2ccc(C34CC5CC(C3)CC(c3ccc(Oc6ccc(N)c(O)c6)cc3)(C5)C4)cc2)cc1O	active: 0.755 µM
CC1(c2ccccc2)CC(c2cccc([N+](=O)[O-])c2)=NO1 (centres undefined)	inactive: > 100 µM
Clc1ccc(/C=N/C23CC4CC(CC(C4)C2)C3)cc1Cl	inactive: > 10 µM
C=C1C[C@@H]2O[C@H]3[C@H]4[C@@H](C[C@@H](C)[C@@H](OC(C)=O)[C@H]42)[C@@H](C)CO[C@@]3(C)[C@H](OC(C)=O)C[C@H]1O	inactive: > 100 µM
CC1=NN(C(=O)Cc2ccccc2)C(=O)/C1=C\c1ccc([N+](=O)[O-])cc1	inactive: > 100 µM
CCN(CC)CCCn1cnc2ncccc2c1=O	inactive: > 100 µM
CC(=O)Nc1cc2cc(NS(=O)(=O)c3ccc(Cl)c(Cl)c3)ccc2oc1=O	inactive: 49.7 µM
CN1Cc2c(ccc3c2OCO3)[C@@H]2[C@H](O)Cc3cc4c(cc3[C@@H]21)OCO4	inactive: 4.8 µM
N=c1c2ccccc2nc2oc3ccccc3n12	inactive: 26 µM
CN(C)N1C(=C(C#N)C#N)C(c2ccccc2)CC1C#N (centres undefined)	inactive: > 100 µM
S=C1/C(=N/c2ccccc2)N(c2ccccc2)/C(=N\c2cccc[n+]2Cc2ccccc2)N1c1ccccc1	inactive: 20 µM
Cn1c(-c2ccccc2)c/c(=N\NS(C)(=O)=O)c2cc(S(=O)(=O)O)ccc21	inactive: > 100 µM
O=C1Cc2c(-c3ccccc3)cc(-c3ccc4ccccc4c3)nc2-c2ccccc2N1	inactive: 10.4 µM
Nc1ccc(Oc2ccc(C3(c4ccc(Oc5ccc(N)cc5)cc4)C4CC5CC(C4)CC3C5)cc2)cc1	active: 0.133 µM
COC(C/C(=C/CO[Si](C(C)C)(C(C)C)C(C)C)C(=O)N(COCC[Si](C)(C)C)c1ccccc1I)OC	inactive: 59.7 µM
COC(=O)CCC(NC(=S)N/N=C/c1ccco1)C(=O)OC (centres undefined)	inactive: > 100 µM
N#Cc1ncn(-c2ccccc2)c1N	inactive: 36.8 µM
Nc1ccccc1C(=O)/C=C/c1ccccc1O	inactive: 60.8 µM

Structure (SMILES)	GI50
COC(=O)/C=C(\C)CC/C=C(\C)CCC(O)C(C)(C)O (centres undefined)	inactive: > 100 µM
CN1CCc2c(sc3ncn(C)c(=N)c23)C1	inactive: > 100 µM
CC1(C)OCC(C2OC(OC(=O)c3ccc(C(F)(F)F)cc3)C3OC(C)(C)OC23)O1 (centres undefined)	inactive: > 77.4 µM
N#Cc1nc(C#N)n(C(=O)c2ccccc2)c1NC(=O)c1ccccc1	inactive: > 100 µM
C=C(CCOC)CCC1CCCCC(=C)C1=O (centres undefined)	inactive: > 100 µM
CSC(=S)NN=C1CCCCC1	inactive: 13.2 µM
CSc1cnn(CCC#N)c(=O)n1	inactive: > 100 µM
CC[C@H]1C=CCC[C@@]2(C[C@@H]3CC[C@@H]4[C@H](C(=O)OCCCCCCCCCCCCCCCC(=O)N(CCCNC(C)=O)C[C@H](CCNC(C)=O)OC(C)=O)[C@]5(CCC[C@@H](C)O5)NC(=[N+]34)N2)O1	active: 0.544 µM
O=CC1=CCCC2(C1)OCCO2	inactive: > 100 µM
Cc1noc(NS(=O)(=O)c2ccc(NC(=O)c3ccc4nc5ccccc5c(Nc5ccc(S(=O)(=O)Nc6onc(C)c6C)cc5)c4c3)cc2)c1C	inactive: > 100 µM
COc1ccc(C(NS(=O)(=O)c2ccc(C)cc2)c2c(C(CBr)OC)c3ccccc3n2S(=O)(=O)c2ccccc2)cc1OC (centres undefined)	inactive: > 100 µM
CCN(CC)CCNc1ccc2ncn3c4cc(O)ccc4c(=O)c1c23	inactive: 2.47 µM
S=C1CCSc2c(ccc3ccccc23)N1	inactive: > 100 µM
Cc1nc(N)nc(N)c1N1CCN(Cc2ccccc2)CC1	inactive: 36.4 µM
CNc1cccc2c1C(C)C[C@]1(C)C(=O)Nc3ccccc3[C@H]21 (some centres undefined)	inactive: 28.6 µM
CCCCSC1=N/C(=C\c2ccccc2O)C(=O)N1	inactive: > 100 µM
Cc1ccc(S(=O)(=O)CC(=O)CC(=O)C(=O)Nc2cccc(C(F)(F)F)c2)cc1	inactive: > 100 µM
Cc1ccccc1NC(=O)c1nc(S)nc(N)c1-c1ccccc1C	inactive: > 100 µM
CC(=O)O[C@@H]1C=C(C)[C@H](CBr)O[C@@]2(C)CC[C@H](Br)C(C)(C)[C@H]12	inactive: > 100 µM
Cc1cccc(O)c(=O)c1	inactive: 19.2 µM
NC(=O)/C=C/NC(=O)/C=N\O	inactive: > 100 µM
CCOC(=O)C1(C(=O)OCC)C[C@]23OCCC(=O)[C@H]2[C@H]2C(=O)OC(C)(C)O[C@]23C1	inactive: > 100 µM
Cc1cc(NS(=O)(=O)c2ccc(NC(=O)c3ccc4[nH]c5ccccc5c(=O)c4c3)cc2)no1	inactive: 35.4 µM
O=C(O)C1CSC2(CCCN(Cc3ccccc3)C2)N1 (centres undefined)	inactive: > 100 µM

Structure (SMILES)	GI50
N#CC(Sc1ccccc1)C(N)=O (centres undefined)	inactive: > 100 µM
C/C(=N\Nc1nc2ccccc2s1)c1ncccn1	active: 0.0376 µM
COc1cc(NCC(C#N)C#N)ccc1/N=N/c1ccc([N+](=O)[O-])cc1	inactive: > 100 µM
Nc1nc(Cl)cc(NCC2(CO)CCC(CCc3ccccc3)C2)n1 (centres undefined)	inactive: 11.9 µM
Cn1cnc([N+](=O)[O-])c1Sc1nc2cccnc2[nH]1	inactive: > 100 µM
OB(O)c1ccccc1C#Cc1ccccc1B(O)O	inactive: 14.3 µM
Cc1cc2nc(N3C(=O)/C(=C/c4ccc(Cl)cc4)N=C3c3ccccc3)sc2cc1C	inactive: 50 µM
NS(=O)(=O)c1cc(Cl)c(NC(=S)NC(=O)Nc2ccc(Cl)c(Cl)c2)c(Cl)c1	inactive: 85.3 µM
Cc1cc(C)nc(NS(=O)(=O)c2ccc(Nc3c4ccccc4nc4c(C(=O)NCCN(C)C)ccc(Cl)c34)cc2)n1	active: 0.962 µM
CC1(C)CN(CC(=O)O)CC(Cc2ccc(OCC(=O)O)cc2)N(CC(=O)O)CC(C)(C)SS1 (centres undefined)	inactive: > 100 µM
CCOC(=O)Nc1ccc(S(=O)(=O)I)cc1.CCOC(=O)Nc1ccc(S(=O)(=O)I)cc1.CN(C=O)C1=C(N(C)C=O)C(N(C)C=O)=C(N(C)C=O)C(=O)C1=O	inactive: > 100 µM
O=C1C(N2C(=O)c3ccccc3C2=O)CN1C(COCc1ccccc1)c1ccc(OCc2ccccc2)cc1 (centres undefined)	inactive: > 100 µM
CC(=O)OC(C)(C)[C@@H]1CC[C@]2(C)/C=C/[C@H](C)C[C@@H](O)C3=C(C)C[C@@H](O3)C12 (some centres undefined)	inactive: > 100 µM
NC(=O)CNC(=O)[C@@H]1CC(OCCC(=O)O)CN1C(=O)C1CCCN1C(=O)OCc1ccccc1 (some centres undefined)	inactive: > 100 µM
COC(=O)C1C(=O)O[C@@H](c2ccc(OC)cc2OC)C1C(=O)OC (some centres undefined)	inactive: > 100 µM
Clc1cccc2[nH]ncc12	inactive: > 100 µM
COc1cc(/C=C2\CC3C4CC[C@H]5C[C@@H](O)CC[C@]5(C)C4CC[C@]3(C)\C2=N\O)cc(OC)c1OC (some centres undefined)	inactive: 27 µM
COc1cc2c(c(OC)c1OC)-c1ccc(SC)c(=O)cc1[C@@H](OC(C)=O)CC2	active: < 0.01 µM
C=C(CN(C)C)C(=O)c1ccccc1	inactive: > 39.5 µM
CN(C)CCC(=O)c1ccccc1	inactive: > 100 µM
CCOc1ccc(/C=C\c2cc(OC)c(OC)c(OC)c2)cc1	active: 0.0542 µM
C=C1C(=O)OC2CC3(C)CCCC(C)C3=CC12 (centres undefined)	inactive: 15.6 µM

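Cultured in 96-well plates, cells were exposed to test compound for 48 hours across five concentrations. Here, GI50 denotes the concentration required for 50% inhibition of growth.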 Active and inactive are the calls of the source. Rule as the data show it: active = GI50 up to about 1.1 µM and inactive = higher.
